Test results: the BET-seq Pho4 binding data (Le et al. 2018)
The list shows a part of the results. Values were computed here from the reads of four pooled replicates and scatter widely.

target: T1, Pho4 (S. cerevisiae) (UniProt P07270); assay: relative binding free energy (BET-seq); higher = weaker binding; conditions: reference: library average
T1 sequence: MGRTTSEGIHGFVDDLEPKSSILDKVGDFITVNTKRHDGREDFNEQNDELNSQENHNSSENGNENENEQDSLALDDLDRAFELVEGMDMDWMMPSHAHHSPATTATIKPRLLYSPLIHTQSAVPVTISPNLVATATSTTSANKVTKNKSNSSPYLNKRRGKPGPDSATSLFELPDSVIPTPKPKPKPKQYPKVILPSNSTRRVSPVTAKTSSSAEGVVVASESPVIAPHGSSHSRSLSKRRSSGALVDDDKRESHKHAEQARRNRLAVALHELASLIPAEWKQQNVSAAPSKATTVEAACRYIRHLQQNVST

Row | Sequence | relative binding free energy [kcal/mol]
1 | AGTATCACGTGGATGC | 0.1
2 | CTTTGCACGTGGTACG | -0.17
3 | TCGGTCACGTGTATAG | 0.11
4 | CGAGGCACGTGGGATT | -0.06
5 | AAGAGCACGTGTATTT | 0.04
6 | GTTCTCACGTGATGTT | 0.34
7 | GGACTCACGTGGGGGC | -0.06
8 | TATAGCACGTGCAGGT | -0.15
9 | AGGTGCACGTGCAGCG | -0.09
10 | TCTAGCACGTGGGCGG | -0.21
11 | TCTGTCACGTGAGGGG | 0.24
12 | ATAGGCACGTGTGGAG | -0.01
13 | GGAGCCACGTGGGTCG | -0.26
14 | TTTTGCACGTGAAAGC | 0.17
15 | TCTAGCACGTGTTGGT | -0.08
16 | TCGGGCACGTGATTGA | -0.06
17 | CATTGCACGTGTTAGA | 0.08
18 | AAACGCACGTGTAGGT | 0.01
19 | AAGACCACGTGTGGTG | -0.05
20 | AGTTTCACGTGTTGGG | 0.3
21 | CGTTGCACGTGTGGCG | -0.01
22 | AATGGCACGTGGTGAC | -0.16
23 | TGTAACACGTGAGGAT | 0.19
24 | GTTGGCACGTGGTGGG | -0.05
25 | CTATGCACGTGTTTTT | -0.1

Row | Sequence | relative binding free energy [kcal/mol]
26 | CCGGGCACGTGTAGTA | 0.08
27 | AATTGCACGTGCAGTG | 0.04
28 | TGTCGCACGTGGATTG | 0.02
29 | GGGGTCACGTGATGAG | 0.32
30 | TGGGGCACGTGTCGTA | -0.09
31 | GGGGCCACGTGTTTGG | -0.1
32 | TGGGCCACGTGCGGAG | 0
33 | GAGTTCACGTGGTGAC | 0.4
34 | TATTTCACGTGTGCGG | 0.21
35 | TGATTCACGTGACTGT | 0.18
36 | TGATCCACGTGCTGGG | -0.04
37 | TCGCGCACGTGGGTTG | -0.27
38 | GTGTTCACGTGAAGAG | 0.33
39 | ATGCTCACGTGGAAGT | 0.3
40 | TATAGCACGTGTGTAA | 0.04
41 | CGTTGCACGTGTGTGA | -0.07
42 | TGCGCCACGTGGGTCT | -0.13
43 | CGTGTCACGTGAATTT | 0.24
44 | GGGATCACGTGCGAGT | 0.08
45 | TGTGTCACGTGGGGTA | -0.04
46 | GTATTCACGTGACTTG | 0.28
47 | AGGTGCACGTGTTTAT | 0.05
48 | GTAGTCACGTGTCGTG | 0.22
49 | TATGTCACGTGACAGT | 0.17
50 | GCACTCACGTGGGTGG | 0.03

Row | Sequence | relative binding free energy [kcal/mol]
51 | TATTGCACGTGCGGCT | -0.03
52 | CGATTCACGTGAGGGA | 0.47
53 | TTATCCACGTGGTGAT | 0.01
54 | TTCTTCACGTGTGTTA | 0.22
55 | GATGTCACGTGGGTAA | 0.01
56 | GTGTTCACGTGGCGGT | 0.24
57 | GAGGTCACGTGTCATG | 0.13
58 | GTAGGCACGTGAGCGA | 0.04
59 | AGTTGCACGTGGCTTT | -0.19
60 | CTTACCACGTGTGGGG | 0
61 | TATGTCACGTGGGATC | -0.08
62 | TCGGGCACGTGGCTTA | -0.06
63 | TTCTACACGTGAGTGG | 0.24
64 | TAAGTCACGTGTTGTC | 0.28
65 | GGTGTCACGTGTTACA | 0.05
66 | ATTTGCACGTGCGGGA | -0.08
67 | AGGGTCACGTGGCCGT | -0.01
68 | GTGTCCACGTGGGGAG | -0.08
69 | CATAACACGTGGGTTG | -0.18
70 | TTAAGCACGTGCCGGT | -0.24
71 | TTAAACACGTGGTAAT | 0.06
72 | TGACTCACGTGAGGTG | 0.12
73 | GATTACACGTGGTAGG | 0.15
74 | TGGTTCACGTGTTAAA | 0.3
75 | TTTAGCACGTGGGTCA | -0.19

Row | Sequence | relative binding free energy [kcal/mol]
76 | TTTCGCACGTGTTAAT | 0.05
77 | AGGTACACGTGCGTAG | -0.06
78 | GAAGTCACGTGTGCTT | 0.13
79 | GTTTTCACGTGCGATG | 0.26
80 | AGTATCACGTGGAAGT | 0.13
81 | TGGTCCACGTGTTAAT | 0.11
82 | GGCAACACGTGGGAGG | -0.06
83 | TGCATCACGTGAGTTG | 0.14
84 | TCTTGCACGTGGCGTG | -0.16
85 | AGTGTCACGTGCGTCG | -0.05
86 | TTCTGCACGTGGGTGA | -0.14
87 | TTGGTCACGTGATGAT | 0.2
88 | TAGTGCACGTGATGGG | 0.11
89 | GCGGGCACGTGTGAAG | 0.15
90 | AAGGTCACGTGGTGGC | 0.15
91 | TGGGACACGTGTCATA | 0.08
92 | ATTTTCACGTGGGGCT | 0.2
93 | CGAGGCACGTGGGTTA | -0.21
94 | TCTAACACGTGTATGT | -0.08
95 | TCTGGCACGTGAGTGT | 0.18
96 | TTGGCCACGTGTGTGG | 0.02
97 | GTGGACACGTGGCGGA | 0.01
98 | TCGTGCACGTGTCAGG | -0.1
99 | TTATGCACGTGTAGTG | 0
100 | GCGTCCACGTGGGTGG | -0.1

Row | Sequence | relative binding free energy [kcal/mol]
101 | TATGTCACGTGGACGT | 0.17
102 | GCAGGCACGTGTAGTG | -0.03
103 | CATGGCACGTGTTGAG | -0.1
104 | ATCAGCACGTGTTTGG | -0.21
105 | GGGAGCACGTGATGTC | 0.05
106 | GTGCACACGTGTGGGT | 0.09
107 | AGGTTCACGTGTGATC | 0.3
108 | GGCGGCACGTGATATT | 0.06
109 | GGGAGCACGTGGAGCG | -0.05
110 | TTGGGCACGTGGTGAG | -0.13
111 | ATGTTCACGTGGTGAA | 0.13
112 | TAGTTCACGTGGCTTG | 0.15
113 | ATTTGCACGTGTGGCG | -0.02
114 | GTTGCCACGTGGGATA | -0.04
115 | GAAGACACGTGGGGTA | -0.11
116 | GTTATCACGTGAGCGT | 0.29
117 | AAGTGCACGTGAGTTG | 0.27
118 | TTGACCACGTGGGGGG | -0.1
119 | GGCAGCACGTGGGTGG | -0.04
120 | TGTGACACGTGATTGC | 0.31
121 | TGTTTCACGTGTAATG | 0.32
122 | TGGTGCACGTGGAAGC | -0.03
123 | ATTGGCACGTGTCTTG | -0.1
124 | ATCTTCACGTGCGTTT | 0.13
125 | TATAGCACGTGATGTT | 0.03

Row | Sequence | relative binding free energy [kcal/mol]
126 | AGAAACACGTGAGGGT | 0.12
127 | AAGGGCACGTGCAGCG | -0.02
128 | TGGTGCACGTGCGGTT | -0.03
129 | GGAGTCACGTGTTTTT | 0.25
130 | TTGGACACGTGATATT | 0.09
131 | TTTGTCACGTGAGTAG | 0.26
132 | ATGGTCACGTGGTATT | 0.03
133 | GTATACACGTGATTGT | 0.21
134 | AAGTGCACGTGAGGAG | 0.15
135 | TTAAGCACGTGGGTTG | -0.21
136 | GGAGCCACGTGGGTGG | -0.25
137 | CTTTGCACGTGTGAGT | 0
138 | GATGTCACGTGGGCGA | 0.05
139 | GTTCACACGTGTGGCG | 0.13
140 | TGATGCACGTGCGTTA | -0.08
141 | TTGATCACGTGTGATC | 0.2
142 | AGAGTCACGTGTGTCG | 0.06
143 | TGTTGCACGTGGATCA | -0.07
144 | AAGTTCACGTGTAGTA | 0.21
145 | AATTGCACGTGGGGTC | -0.13
146 | GGTAACACGTGTTGAG | 0.01
